In PubChem BioAssay AID686971 (National Center for Advancing Translational Sciences (NCATS), 2013):
Hit rate of the full screen: of about 360,000 compounds, about 7,500 (2.1%) were called active. This list was built around the results that the source calls inconclusive (neither active nor inactive); the mix of calls is not that of the screen. Calls follow the shape of the dose curve; as a rule, active = well fitted cell-killing curve with a large enough effect; inconclusive = small, poorly fitted or top-dose-only effect, or effect the other way, or another doubt; inactive = no such curve, though single readings can be large or run the other way. Potencies of inconclusive entries are left out as doubtful fits.

Assay: qHTS for induction of synthetic lethality in tumor cells producing 2HG: qHTS for the HT-1080-IDH1KD cell line;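 as to activity, negative = toxicity: 0% = DMSO wells and -100% = cell-free medium wells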
Settings: HT-1080 IDH1 knockdown viability, ATP luminescence, 48 h; activity, negative = toxicity: at 46.1 µM (top of the series) unless noted
Method in brief: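 CellTiter-Glo luminescence after 48 h compound exposure at 37 degrees C of IDH1-knockdown HT-1080 cells in 5% FBS RPMI. %Activity scaled between DMSO wells and cell-free media wells, with curves fitted and assigned curve classes.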
Potency is read from the fitted curve at half-maximal effect; tags tell the direction and shape of the fitted curve.

| Structure (SMILES) | activity, negative = toxicity | Potency |
| --- | --- | --- |
| CCc1cc(=O)oc2c(C)c(OS(C)(=O)=O)ccc12 | inactive: -3.77% |  |
| COCc1c(C#N)c(NCCc2ccc(F)cc2)nc(C)c1[N+](=O)[O-] | inactive: 3.67% |  |
| C=CCOCCN(C)C1=NS(=O)(=O)c2cc([N+](=O)[O-])ccc21 |  | inconclusive [cytotoxic, single point] |
| Cc1sc2nc(SCC(=O)OC(C)C)n(C)c(=O)c2c1C | inactive: 8.23% |  |
| Cc1nnc(SCC(=O)N(C)CC(=O)Nc2ccccc2Cl)s1 | inactive: 5.59% |  |
| Cc1ccc(O)c(NC(=O)c2cc([N+](=O)[O-])ccc2Cl)c1 |  | inconclusive [cytotoxic, partial curve] |
| CC(=O)NN1C(=O)/C(=C/c2ccc(Br)o2)SC1=S | inactive: 0.347% |  |
| CN(Cc1ccccc1)C(=O)CSc1nc2ccccc2c(=O)n1Cc1ccco1 |  | inconclusive [cytotoxic, single point] |
| CC(C)(Oc1ccc(Cl)cc1)C(=O)OCc1nc2ccsc2c(=O)[nH]1 | inactive: 12.5% |  |
| CCOC(=O)[C@]12CCC=C1N(Cc1cccc3ccccc13)C(=O)[C@H](CC(=O)NCc1cccc(C(F)(F)F)c1)C2 |  | inconclusive [cytotoxic, single point] |
| COc1ccc(-c2nnc(SCC(=O)c3ccc(O)cc3O)o2)cc1 | inactive: 10.3% |  |
| O=C1[C@H]2[C@@H](c3ccc(C(F)(F)F)cc3)N[C@]3(CCCN(Cc4ccc(Cl)cc4)C3=O)[C@H]2C(=O)N1Cc1ccccc1 |  | inconclusive [cytotoxic, single point] |
| O=C(N/N=C/c1ccco1)c1cc(-c2cccc(Br)c2)nc2ccccc12 |  | inconclusive [cytotoxic, partial curve] |
| CN(C)c1ccc(NC(=S)c2ccccn2)cc1 |  | inconclusive [cytotoxic, single point] |
| O=C(Nc1ncc(Cc2cccc(Cl)c2)s1)c1ccc([N+](=O)[O-])cc1 |  | inconclusive [cytotoxic, partial curve] |
| Cc1cc2c3c(c1C)C1(C(=O)N3C(C)(C)CC2C)C(C#N)=C(N)Oc2n[nH]c(C)c21 (stereo unspecified) |  | inconclusive [cytotoxic, single point] |
| COc1ccc(-c2sc3ccc(N4CCOCC4)cc3c2C#CCO)cc1 |  | inconclusive [cytotoxic, single point] |
| Cc1ccn2cc(C(=O)Nc3nnc(C)s3)nc2c1 | inconclusive: -0.0257% [cytotoxic] |  |
| CN(C)CC(=O)Nc1ccc(Oc2ccc(Cl)cc2)cc1 |  | inconclusive [cytotoxic, partial curve] |
| COc1ccccc1NC(=O)c1oc2ccccc2c1NC(=O)C1CC1 |  | inconclusive [cytotoxic, partial curve] |
| Cc1ccc(C(c2cc(Cl)c3cccnc3c2O)N2CCN(C)CC2)cc1 (stereo unspecified) |  | inconclusive [cytotoxic, partial curve] |
| Cc1ccc(C(C)C)c(OCc2ccc(-c3nnco3)cc2)c1 |  | inconclusive [cytotoxic, single point] |
| CC(=O)Nc1ccc(S(=O)(=O)N2CCC(C(=O)c3ccc(F)cc3)CC2)cc1 |  | inconclusive [cytotoxic, partial curve] |
| Cc1cccc(Oc2nc(-c3ccncc3)nc3ccccc23)c1 |  | inconclusive [cytotoxic, single point] |

| Structure (SMILES) | activity, negative = toxicity | Potency |
| --- | --- | --- |
| COC(=O)c1sc(NC(=O)c2cc3c(s2)CCCC3)nc1C | inactive: 5.74% |  |
| CN1C(=O)CON=C1c1cccc2ccccc12 |  | inconclusive [rising, partial curve, poor fit] |
| COC(=O)c1cn(-c2nc3ccccc3s2)nn1 | inactive: 0.814% |  |
| CCSc1nnc(-c2cccc(S(=O)(=O)N(CC)CC)c2)n1Cc1ccccc1 | inactive: -16.1% |  |
| CC(C)C[C@@H](CN1CCC[C@@H]1CN1C(=S)NC[C@@H]1Cc1ccccc1)N1C[C@H](Cc2ccc(O)cc2)N(CC2CCCCCC2)C1=S |  | active: 18.4 µM |
| CCCCN(CCCC)S(=O)(=O)c1ccc(NC(=O)c2ccc([N+](=O)[O-])cc2Cl)cc1 |  | inconclusive [cytotoxic, partial curve] |
| COCCn1c(SCc2ccc(C(=O)OC)o2)nnc1-c1c[nH]c2ccccc12 | inactive: 4.59% |  |
| O=C1/C(=C\c2ccc(O)cc2)SC(=S)N1Cc1ccccc1 |  | active: 23.1 µM |
| Clc1ccc(-c2noc(CSc3nnc(-c4ccncc4)n3-c3ccccc3)n2)cc1 |  | inconclusive [cytotoxic, single point] |
| CC(=O)C1=CN(Cc2ccccc2)CCC1=O | inactive: -0.0428% |  |
| COc1ccc(S(=O)(=O)N2CCC(C(=O)NCCC(=O)Nc3cccc(Cl)c3)CC2)cc1 | inactive: -12.6% |  |
| OCCCCNCc1ccc(OCc2ccc(Cl)cc2Cl)cc1 |  | inconclusive [cytotoxic, single point] |
| CCC(C)Sc1ccc([C@@H]2[C@@H]3C(=O)N(CC)C(=O)[C@@H]3[C@]3(C(=O)OC)CCCCN23)cc1 (stereo partly specified) | inactive: 20.1% |  |
| O=C(Nc1ccccc1Cl)c1cc(C2CCCCN2C(=O)c2ccccc2)on1 (stereo unspecified) |  | inconclusive [cytotoxic, single point] |
| O=C(CSc1nc(-c2ccco2)cc(C(F)(F)F)n1)Nc1cccnc1 |  | inconclusive [cytotoxic, single point] |
| COc1cccc(CC2(CO)CCCN(Cc3ccccc3-c3ccco3)C2)c1 (stereo unspecified) |  | inconclusive [cytotoxic, partial curve] |
| CC(C)c1ccc(/C=C2\SC(=O)N(CC(=O)NC3CCS(=O)(=O)C3)C2=O)cc1 (stereo unspecified) |  | inconclusive [cytotoxic, single point] |
| Cc1cc(N2C(=O)C3C4c5ccccc5C(c5ccccc54)C3C2=O)no1 (stereo unspecified) | inactive: 2.57% |  |
| Cc1ccc(-c2nnc3c(C(F)(F)F)nc4ccccc4n23)cc1 | inactive: 12.1% |  |
| Cc1cc(C(=O)N/N=C/c2c3ccccc3cc3ccccc23)n[nH]1 |  | active: 16.4 µM |
| O=C(NNC(=S)NC(=O)c1ccco1)c1ccc(F)cc1 |  | inconclusive [cytotoxic, single point] |
| CN(C)N1C(N)=C(C#N)C(c2cccc3ccccc23)C2=C1CC(c1ccccc1)CC2=O (stereo unspecified) |  | inconclusive [cytotoxic, single point] |
| CCOC(=O)/C(C#N)=C/N=c1ccc(C)cn1C | inconclusive: 32.2% |  |
| C/C(=N\NC(=O)c1cccc(N/N=C(\C)c2ccccc2)c1)c1ccccc1 |  | inconclusive [cytotoxic, single point] |

| Structure (SMILES) | activity, negative = toxicity | Potency |
| --- | --- | --- |
| CC(=O)Nc1ccc(NC(=O)CSc2nc3ccccc3c(=O)n2CCCN2CCOCC2)cc1 | inactive: -18.3% |  |
| CCCN(CCC)C(=O)CSc1nc2ccccc2c(=O)n1C1CCCC1 |  | inconclusive [cytotoxic, single point] |
| Cc1cc(C)c2cc(CN(CCCN(C)C)C(=S)NCc3ccccc3)c(=O)[nH]c2c1 |  | inconclusive [cytotoxic, partial curve] |
| CCC(=O)n1nc(-c2cccnc2)nc1NCc1ccccc1 |  | active: 4.61 µM |
| NC1C(N)C(N)C1N (stereo unspecified) | inactive: 3.72% |  |
| O=C(CN1C(=O)CC(c2ccccc2)S(=O)(=O)c2ccccc21)N1CCCCC1 (stereo unspecified) | inactive: 13.6% |  |
| Cc1ccc(N(CC(=O)NCc2ccco2)C(=O)CCC(=O)Nc2ccccn2)c(C)c1 | inactive: 0.471% |  |
| COc1ccc(N2CCN(C(=O)c3ccc(CS(=O)c4cccc(C)c4)o3)CC2)cc1 (stereo unspecified) |  | inconclusive [cytotoxic, single point] |
| BrC(=C\c1ccccc1)/C=N/Nc1nc(N2CCOCC2)nc(N2CCOCC2)n1 |  | inconclusive [cytotoxic, single point] |
| O=C(c1ccc(F)cc1)N1CCN(C(=O)c2ccc([N+](=O)[O-])cc2)CC1 | inactive: 7.87% |  |
| CCN(Cc1ccc(O)cc1)CC1CCCN(CCc2cccc(F)c2)C1 (stereo unspecified) |  | inconclusive [cytotoxic, single point] |
| CCOC(=O)C1=CCN(S(=O)(=O)c2ccc(C)cc2)[C@H]1c1ccccc1Cl |  | inconclusive [cytotoxic, single point] |
| COc1cccc(Nc2nc(-c3ccc(O)cc3)cs2)c1 |  | inconclusive [cytotoxic, single point] |
| CCOc1ccccc1NC(=O)c1ccccc1-c1nc(-c2ccccc2)no1 | inactive: -22.9% |  |
| O=C(NCc1ccccc1)C1=C[C@@H](c2coc3ccccc3c2=O)C[C@@H](OCc2ccc(CO)cc2)O1 | inactive: -15.7% |  |
| Cc1nc(NC(=O)c2ccco2)sc1-c1csc(Nc2ccc(Cl)cc2Cl)n1 |  | inconclusive [cytotoxic, partial curve] |
| Nc1c(N(CCC2=CCCCC2)C(=O)COc2ccc(F)cc2Cl)c(=O)[nH]c(=O)n1Cc1ccccc1 |  | active: 10.3 µM |
| CC1(C(=O)NCc2cccc(Cl)c2)Cc2c(-c3ccccc3)ccnc2O1 (stereo unspecified) |  | inconclusive [cytotoxic, single point] |
| CC1=NN(c2cccc(C(=O)O)c2)C(=O)/C1=C\C=C/c1ccccc1 |  | inconclusive [cytotoxic, full curve] |
| Cc1ccccc1C(=O)N/C(=C/c1ccc(-c2cccnc2Cl)o1)C(=O)NCCCN1CCN(C)CC1 | inactive: -12.6% |  |
| O=C(COC(=O)/C=C/c1ccc(Cl)cc1)NC(=O)NCc1ccccc1 |  | inconclusive [cytotoxic, single point] |
| CCn1cc(CCC(=O)NC2CCCC2)c2ccccc21 | inactive: 13.2% |  |
| Cc1ccc(S(=O)(=O)c2c(C)nn(C(C)(C)C)c2OC(=O)c2ccc(Br)o2)cc1 |  | inconclusive [cytotoxic, single point] |
